According to PubChem BioAssay (NCI):
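48-hour exposure; five concentrations; linearly interpolated endpoints. TGI: concentration producing complete growth inhibition.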 The source holds more than one record for some entries. This is not the full list of results. An entry can have further records. For some assays here: A record mostly stands for its own series of concentrations, not given here; a value can be the end of its range. For some assays here: Results that share an entry are repeats across runs, samples, wells, individuals or studies. Marks in square brackets tell the records apart. The letters are not those of the source and start again with each entry.

System: MDA-MB-468 breast
Test: inhibition of tumour cell growth, NCI panel, 48 h

COc1ccc(Cn2cc(Cn3c(=O)c(-c4nc5ccccc5[nH]4)cc4ccccc43)nn2)c(OC)c1OC
TGI: 491 nM and > 100 µM

O=[N+]([O-])c1ccc(O)c2ncccc12
TGI: > 100 µM [sample A, 1 test] and 5.91 µM [sample B, 1 test]
